In PMC9308218, “FBXL17/spastin axis as a novel therapeutic target of hereditary spastic paraplegia” (Cell & Bioscience, 2022):
Residue numbers refer to the chain shown, from its start. These are yes or no findings as the source states them, for the method shown. For some of these results: Binding seen in cells or lysates may run through a third protein. Some entries that bind do so weakly or less than the wild type. For some of these results: Tags and fused reporters may be left off the sequences shown. Each block holds one molecule with its values, some of them ahead of it.

Sequences of proteins named here, by UniProt entry; tags and fusion partners are left off. A change or cut given only in a name is not applied to a line headed by its entry.
UniProt Q9UF56: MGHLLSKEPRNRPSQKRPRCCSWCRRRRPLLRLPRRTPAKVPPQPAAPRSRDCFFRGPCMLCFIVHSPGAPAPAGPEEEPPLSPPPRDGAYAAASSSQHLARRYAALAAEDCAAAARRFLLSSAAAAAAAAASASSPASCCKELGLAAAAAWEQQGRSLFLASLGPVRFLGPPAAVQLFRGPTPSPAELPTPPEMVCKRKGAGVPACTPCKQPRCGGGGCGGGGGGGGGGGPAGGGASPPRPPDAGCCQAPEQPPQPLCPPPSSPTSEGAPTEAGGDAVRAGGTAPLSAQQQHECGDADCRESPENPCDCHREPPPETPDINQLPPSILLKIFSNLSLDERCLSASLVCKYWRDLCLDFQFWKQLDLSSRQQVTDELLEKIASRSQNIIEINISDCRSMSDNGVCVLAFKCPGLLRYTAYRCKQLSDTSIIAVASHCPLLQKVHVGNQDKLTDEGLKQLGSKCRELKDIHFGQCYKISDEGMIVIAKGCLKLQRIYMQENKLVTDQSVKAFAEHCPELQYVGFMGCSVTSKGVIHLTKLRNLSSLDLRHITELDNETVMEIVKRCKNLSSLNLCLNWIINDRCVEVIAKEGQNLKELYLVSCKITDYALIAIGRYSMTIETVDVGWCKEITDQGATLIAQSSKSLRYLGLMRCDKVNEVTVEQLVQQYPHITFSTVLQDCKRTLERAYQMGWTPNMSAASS
UniProt P68400: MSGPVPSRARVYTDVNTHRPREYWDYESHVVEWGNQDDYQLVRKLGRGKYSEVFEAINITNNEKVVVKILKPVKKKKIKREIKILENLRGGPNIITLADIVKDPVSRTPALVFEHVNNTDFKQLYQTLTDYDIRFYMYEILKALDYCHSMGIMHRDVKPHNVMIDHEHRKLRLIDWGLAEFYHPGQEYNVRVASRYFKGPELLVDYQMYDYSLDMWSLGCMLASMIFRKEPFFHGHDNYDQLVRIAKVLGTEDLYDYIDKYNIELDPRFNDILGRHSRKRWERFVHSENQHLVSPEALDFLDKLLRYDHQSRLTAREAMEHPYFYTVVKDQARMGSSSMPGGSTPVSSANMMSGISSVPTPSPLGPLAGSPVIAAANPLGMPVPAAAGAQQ
UniProt P63208: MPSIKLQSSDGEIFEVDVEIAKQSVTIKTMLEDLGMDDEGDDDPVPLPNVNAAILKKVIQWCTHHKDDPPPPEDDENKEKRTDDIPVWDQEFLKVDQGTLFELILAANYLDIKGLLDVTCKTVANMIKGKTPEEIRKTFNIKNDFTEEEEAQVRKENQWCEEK
UniProt P67870: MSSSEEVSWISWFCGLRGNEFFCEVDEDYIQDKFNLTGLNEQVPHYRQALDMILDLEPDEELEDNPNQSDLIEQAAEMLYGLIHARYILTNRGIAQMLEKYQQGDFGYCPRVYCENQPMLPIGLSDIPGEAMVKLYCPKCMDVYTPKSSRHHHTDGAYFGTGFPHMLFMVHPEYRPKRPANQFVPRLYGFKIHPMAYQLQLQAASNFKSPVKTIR

Columns and labels:
[1] = biological target: T1, SPAST-M1 (expression plasmid of Fig. 4A) (human) (UniProt Q9UBP0); test: co-IP; HEK293 co-transfected with expression plasmids of SPAST-M1 and CK2α or CK2β; immunoprecipitation and western blot (Fig. 4A)
T1 sequence: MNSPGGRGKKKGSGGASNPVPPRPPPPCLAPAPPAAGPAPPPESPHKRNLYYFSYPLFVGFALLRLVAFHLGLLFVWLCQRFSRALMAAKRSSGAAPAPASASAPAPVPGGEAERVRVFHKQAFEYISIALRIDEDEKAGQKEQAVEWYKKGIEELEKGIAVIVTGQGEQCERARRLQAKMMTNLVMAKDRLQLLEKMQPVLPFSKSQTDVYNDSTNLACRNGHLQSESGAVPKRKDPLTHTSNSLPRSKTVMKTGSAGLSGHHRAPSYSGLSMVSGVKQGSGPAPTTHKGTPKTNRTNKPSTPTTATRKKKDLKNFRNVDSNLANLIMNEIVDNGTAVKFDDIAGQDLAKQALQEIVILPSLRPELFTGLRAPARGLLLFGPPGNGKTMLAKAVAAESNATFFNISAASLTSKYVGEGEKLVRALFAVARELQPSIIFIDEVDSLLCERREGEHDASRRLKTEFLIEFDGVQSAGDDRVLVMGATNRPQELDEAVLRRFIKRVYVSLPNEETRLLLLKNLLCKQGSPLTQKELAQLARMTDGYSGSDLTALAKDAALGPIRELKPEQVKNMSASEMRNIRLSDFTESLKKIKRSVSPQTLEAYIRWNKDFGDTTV

GST-KLHL12 (human) = biological target: T2, GST-KLHL12 (human) (UniProt Q53G59); test: pull-down; in vitro binding assay: purified recombinant proteins from E. coli, 0.5 μg each in 200 μl 1 × PBS, 0.1% NP-40, pulled down with glutathione sepharose beads (Fig. 2I); both purified
T2 sequence: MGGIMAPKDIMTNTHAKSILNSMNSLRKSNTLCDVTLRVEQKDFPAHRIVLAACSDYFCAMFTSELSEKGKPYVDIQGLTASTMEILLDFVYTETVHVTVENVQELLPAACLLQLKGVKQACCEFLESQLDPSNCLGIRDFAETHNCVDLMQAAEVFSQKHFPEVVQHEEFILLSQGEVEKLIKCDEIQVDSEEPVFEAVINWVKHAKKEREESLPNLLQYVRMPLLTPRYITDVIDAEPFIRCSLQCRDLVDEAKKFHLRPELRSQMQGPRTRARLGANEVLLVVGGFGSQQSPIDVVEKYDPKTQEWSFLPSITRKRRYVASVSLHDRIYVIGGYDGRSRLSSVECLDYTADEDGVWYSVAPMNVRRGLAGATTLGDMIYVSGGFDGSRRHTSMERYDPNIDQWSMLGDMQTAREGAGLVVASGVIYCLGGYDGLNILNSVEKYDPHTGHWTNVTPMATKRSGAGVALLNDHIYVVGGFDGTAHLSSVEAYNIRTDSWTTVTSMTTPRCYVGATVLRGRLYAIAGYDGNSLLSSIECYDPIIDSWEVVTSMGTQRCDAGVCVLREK

Flag-SPAST-M1 (human) [2] = biological target: T3, Flag-SPAST-M1 (human) (UniProt Q9UBP0); test: co-IP; nuclear fraction of HEK293 transfected with the indicated plasmids and treated with MG132; anti-Flag magnetic beads (Fig. 3D, E)
T3 sequence: T1 sequence

Flag-SPAST-M87 (human) [3] = biological target: T4, Flag-SPAST-M87 (human) (UniProt Q9UBP0); test: as above
T4 sequence: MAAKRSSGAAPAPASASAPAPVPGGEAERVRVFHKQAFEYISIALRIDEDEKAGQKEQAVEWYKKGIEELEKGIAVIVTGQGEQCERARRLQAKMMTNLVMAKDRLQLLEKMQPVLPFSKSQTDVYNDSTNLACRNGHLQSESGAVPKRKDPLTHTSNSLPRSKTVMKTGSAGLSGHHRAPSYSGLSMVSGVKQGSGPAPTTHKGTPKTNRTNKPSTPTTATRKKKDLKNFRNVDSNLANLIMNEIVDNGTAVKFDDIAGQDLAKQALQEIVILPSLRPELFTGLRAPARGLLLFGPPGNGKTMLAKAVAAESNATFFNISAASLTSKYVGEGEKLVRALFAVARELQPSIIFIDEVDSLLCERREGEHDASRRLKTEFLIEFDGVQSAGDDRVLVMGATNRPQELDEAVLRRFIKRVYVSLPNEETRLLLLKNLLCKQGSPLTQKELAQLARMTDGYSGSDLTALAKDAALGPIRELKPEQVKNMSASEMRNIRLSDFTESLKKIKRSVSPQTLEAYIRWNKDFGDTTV

Flag-SPAST-M1 (human) [4] = biological target: T3, Flag-SPAST-M1 (human); test: co-IP; HEK293 transfected with the indicated plasmids (Flag-SPAST constructs); anti-Flag magnetic beads; western blot (Fig. 2E, Fig. 6B)
[5] = biological target: T5, Flag-SPAST-NT (1–250 a.a.) (human) (UniProt Q9UBP0); test: as above
T5 sequence: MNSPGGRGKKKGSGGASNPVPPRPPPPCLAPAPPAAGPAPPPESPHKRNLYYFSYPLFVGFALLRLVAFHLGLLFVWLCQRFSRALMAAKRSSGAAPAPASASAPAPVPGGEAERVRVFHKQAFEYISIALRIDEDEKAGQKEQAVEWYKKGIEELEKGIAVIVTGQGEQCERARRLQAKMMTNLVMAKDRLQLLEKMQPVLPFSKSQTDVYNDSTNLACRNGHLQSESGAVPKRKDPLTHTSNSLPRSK

[6] = biological target: T6, Flag-SPAST-M1 Y52C (human) (UniProt Q9UBP0); test: as above
T6 sequence: T1 sequence with Y52C

Flag-SPAST-M87 (human) [7] = biological target: T4, Flag-SPAST-M87 (human); test: as above
Flag-SPAST-M1 (human) [8] = biological target: T3, Flag-SPAST-M1 (human); test: co-IP; cytoplasmic fraction of HEK293 transfected with the indicated plasmids and treated with MG132; anti-Flag magnetic beads (Fig. 3D, E)
Flag-SPAST-M87 (human) [9] = biological target: T4, Flag-SPAST-M87 (human); test: as above
Flag-SPAST-M1 (human) [10] = biological target: T3, Flag-SPAST-M1 (human); test: co-IP; HEK293 transfected with Flag-SPAST-M1; anti-Flag beads; western blot for endogenous proteins (Fig. S1B, Fig. 2C); NET gel buffer
[11] = biological target: FBXL17 (F-box and leucine-rich repeat protein 17) on the HuProt protein microarray (human) (UniProt Q9UF56); test: peptide or protein array; HuProt human protein microarray (over 20,000 full-length recombinant human proteins); 3 μg biotinylated His-SPAST on the array for 8 h at 4 °C; detected with streptavidin-Alexa-Fluor 635; both purified
[12] = biological target: endogenous FBXL17 (ReNcell CX) (human (endogenous in ReNcell CX)) (UniProt Q9UF56); test: co-IP; endogenous proteins, ReNcell CX lysate in NET gel buffer; antibodies against FBXL17 or control IgG overnight at 4 °C, Protein A magnetic beads
Flag-FBXL17 (human) = Flag-FBXL17 (human) (UniProt Q9UF56); test: co-IP; HEK293 co-transfected with Flag-tagged F-box and HA-SPAST-M1 constructs; immunoprecipitation-western blot (Fig. 2H)

Molecule: His-tagged FBXL17-ΔNT1 (318-701a.a.) (from UniProt Q9UF56 318-701) (domain or fragment)
- binding (GST-KLHL12 (human)): binds

Molecule: CK2α (from UniProt P68400 1-391)
- binding [1]: no binding

Molecule: FBXL17 in HEK293 cells transfected with the indicated plasmids (Fig. 2E, 3D, 3E, 6B) (from UniProt Q9UF56 1-701)
- binding (Flag-SPAST-M1 (human) [2]): binds
- binding (Flag-SPAST-M87 (human) [3]): no binding
- binding (Flag-SPAST-M1 (human) [4]): binds
- binding [5]: binds
- binding [6]: no binding
- binding (Flag-SPAST-M87 (human) [7]): no binding
- binding (Flag-SPAST-M1 (human) [8]): binds
- binding (Flag-SPAST-M87 (human) [9]): no binding

Molecule: endogenous Skp1 (HEK293) (from UniProt P63208 1-163)
- binding (Flag-SPAST-M1 (human) [10]): binds

B2: endogenous SPAST-M1 (ReNcell CX) (protein, UniProt Q9UBP0 1-616)
chain: T1 sequence
- binding [12]: binds

B3: HA-SPAST-M1 (protein, UniProt Q9UBP0 1-616)
chain: T1 sequence
- binding (Flag-FBXL17 (human)): binds

Continued, values first:

- binding [1]: binds
Molecule: CK2β (from UniProt P67870 1-215)

- binding (Flag-SPAST-M1 (human) [10]): binds
Molecule: endogenous FBXL17 (HEK293) (from UniProt Q9UF56 1-701)

- binding [11]: binds
B1: biotinylated His-SPAST-M1 (natural protein, human, UniProt Q9UBP0 1-616, looked up)
chain: T1 sequence
modifications: biotin (biotinylated, site not stated)
notes: The methods call it His-SPAST; the results call it His-SPAST-M1; also called His-tagged SPAST protein; source: E. coli BL21 (pET28a-His-SPAST), purified (Ni-NTA)
